This passage reports inhibition results from PubChem BioAssay AID493035 (The Scripps Research Institute Molecular Screening Center, 2011).

The structures appear in SMILES notation. Screen size: about 2,000 compounds; about 45 (2%) were called active.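 The calls were made as follows: active = inhibition above the mean of all tested compounds plus 3 SD (cut at about 49% in these data); inactive = the rest.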 The list shows a part of the results.

In this assay the target is Perilipin-5 (Homo sapiens) + 1-acylglycerol-3-phosphate O-acyltransferase ABHD5 (Homo sapiens) (UniProt Q00G26+Q8WTS1). Description: blockers of ABHD5 binding to perilipin-5 – cell lysate, split luciferase complementation, luminescence, NIH validation set, pilot screen (AID 493035).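 Also: 0% = DMSO only wells while the 100% control is not stated.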 To be noted: split G. princeps luciferase complementation, lysates, 4 h; at 7.9 µM, hits give high values.
Sequence of UniProt Q00G26 (Q00G26 whole entry, looked up): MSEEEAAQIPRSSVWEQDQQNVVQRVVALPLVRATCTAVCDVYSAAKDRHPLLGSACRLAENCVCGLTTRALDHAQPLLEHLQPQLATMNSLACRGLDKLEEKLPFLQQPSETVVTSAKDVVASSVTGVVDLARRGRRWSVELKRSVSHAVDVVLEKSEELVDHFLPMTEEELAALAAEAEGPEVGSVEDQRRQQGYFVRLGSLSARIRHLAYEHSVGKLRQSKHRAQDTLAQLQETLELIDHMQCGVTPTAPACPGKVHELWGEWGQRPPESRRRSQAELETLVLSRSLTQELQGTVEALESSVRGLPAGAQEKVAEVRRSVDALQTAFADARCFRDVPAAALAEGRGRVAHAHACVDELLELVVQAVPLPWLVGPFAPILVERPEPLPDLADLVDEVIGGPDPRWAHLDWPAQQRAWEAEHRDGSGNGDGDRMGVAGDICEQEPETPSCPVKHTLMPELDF
Sequence of UniProt Q00G26 (Q8WTS1 whole entry, looked up): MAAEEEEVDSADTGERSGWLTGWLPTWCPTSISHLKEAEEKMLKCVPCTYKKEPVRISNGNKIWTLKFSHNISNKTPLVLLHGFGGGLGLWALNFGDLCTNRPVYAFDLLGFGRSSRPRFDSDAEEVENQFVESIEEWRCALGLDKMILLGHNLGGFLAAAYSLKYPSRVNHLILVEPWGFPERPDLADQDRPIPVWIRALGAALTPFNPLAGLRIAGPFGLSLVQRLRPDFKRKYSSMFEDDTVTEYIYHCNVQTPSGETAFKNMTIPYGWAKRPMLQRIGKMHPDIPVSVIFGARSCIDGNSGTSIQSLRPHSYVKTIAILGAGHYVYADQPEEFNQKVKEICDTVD
Take `CC(=O)O[C@]1(C(C)=O)CC[C@H]2[C@@H]3C=C(C)C4=CC(=O)CC[C@]4(C)[C@H]3CC[C@@]21C`: the inhibition is inactive: -9.22%. The figure for `CC(=O)NCCCCCCNC(C)=O` is inactive: -0.27%; for `CC(C)OC(=O)CC1C(=O)NCCN1C(=S)NC(=O)c1ccccc1Cl` (stereo not drawn) it is inactive: 4.38%. Consider `CC(C)Cc1ccc(C(C)C(=O)Nc2ccc(O)cc2)cc1` (stereo not drawn), for which the inhibition was inactive: -3.61%. For `Cc1nc(C)c(C)nc1C`, the inhibition was inactive: -0.39%.

On to `COc1cc2cc(C(=O)O)[nH]c2c(OC)c1OC`, for which the inhibition was inactive: -0.8%. For `CC(=O)N(C(C)=O)c1nc2nc(C)cc(C)n2n1`, the inhibition was inactive: 4.56%. The same measure for `O=C(CC(C(=O)O)c1c[nH]c2ccccc12)c1ccccc1` (stereo not drawn): inactive: -7.3%; for `Cc1oc2cc(O)ccc2c(=O)c1Oc1ccccc1Br`: inactive: 7.33%; for `COC(=O)CN1CC(=O)N(c2ccccc2)C1=S`: inactive: -2.58%.

Consider `CCCCC[C@H](O)/C=C/[C@@H]1[C@@H](CCCCCCC(=O)O)[C@@H](O)C[C@H]1O`, for which the inhibition was inactive: 9.22%. Turning to `O=C(/C=C/Sc1ccccc1)c1ccccc1`, the inhibition is active: 85.6%. With `C=CCC1(O)C(=O)N2C(=C1C(=O)N1CCOCC1)c1ccccc1CC2(C)C` (stereo not drawn), the inhibition is inactive: 0.31%. For `Cc1c(OC(=O)CNC(=O)OC(C)(C)C)ccc2c3c(c(=O)oc12)CCC3`, the inhibition is inactive: 11.6%. On to `O=C1Nc2ccc3sc4ccccc4c3c2C1=O`, for which the inhibition was inactive: -7.44%. The same measure for `COc1ccccc1NC(=O)N1CCc2[nH]c3ccc(Cl)cc3c2C1`: inactive: 10.3%. Take `CO/N=C(\C(=O)N[C@@H]1C(=O)N2C(C(=O)O)=C(COC(C)=O)CS[C@H]12)c1csc(N)n1` (stereo in doubt): the inhibition is inactive: 14.3%.

As to `NC(=O)c1cccnc1`, the inhibition was inactive: -6.1%.

Regarding `CC12CCCCN1CCCc1c2[nH]c2ccccc12` (stereo not drawn), the inhibition was inactive: 6.67%. With `Cn1c(=O)c2c(ncn2CC(O)CO)n(C)c1=O` (stereo not drawn), the inhibition was inactive: -11.7%. On to `COc1cccc(N2C(=O)CC(c3c[nH]c4ccccc34)C2=O)c1` (stereo not drawn), for which the inhibition was inactive: -3.27%. The figure for `O=C(O)C1CSC(c2ccc3c(c2)OCO3)N1` (stereo not drawn) is inactive: 24.3%. The same measure for `N=C1C(c2ccccc2)=C(O)CN1CCCO`: inactive: -12.8%; for `O=c1nc2n(c3c1oc1ccccc13)Cc1ccccc1-2`: inactive: 0.41%; for `COc1cc(C2C(C(=O)c3ccc(C)o3)=C(O)C(=O)N2Cc2cccnc2)ccc1O` (stereo not drawn): inactive: -7.73%.

For `CC(=O)Oc1c2occc2cc2ccc(=O)oc12`, the inhibition is inactive: 5.83%. As to `OCCC1CN(Cc2ccccc2-c2ccco2)CCN1C1CCCC1` (stereo not drawn), the inhibition was inactive: -8.47%. Take `Cc1ccc2c(c1)C(O)(c1c(C)[nH]c3ccccc13)C(=O)N2` (stereo not drawn): the inhibition is inactive: -4.15%.

As usually defined, the inhibition is the change of the read-out against control, counted positive when it falls.
